According to the supplement of paper PMC11417369:
Some of the results follow.

System: PfHDP1 homeodomain (GST-tagged)
Experiment: gcPBM binding intensity (ln(normalized median fluorescence intensity)); higher = stronger DNA binding
Outline: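 GST-fused DNA-binding domains of P. falciparum, expressed in E. coli, were applied at about 25 μg on average for 1 h to an Agilent 4 × 180k array of primer-extended double-stranded 36-bp intergenic genomic probes and negative controls. Binding intensity is the highest Masliner-normalised natural-log median intensity across replicate spots of either probe orientation, measured with Alexa488 anti-GST antibody and a 488 nm scan.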

Sequence | gcPBM binding intensity (ln)
GAAAAAAATGAAATTAGTACTTATCTTAAATTTTTA [XGTACX_site1018] | 5.78
AAAAATATATAATAAAGTACACATAAATGAATAAAT [XGTACX_site329] | 6.37
TTTTTTTTTTTTTGATGTACAATTAATATTATAAAA [XGTACX_site6969] | 6.59
ATTTCTTTTTTATTGAGTACATATGACCATGTTCAA [XGTACX_site5365] | 6.86
AGTAATAAATAATTTACACACATATTATATCATCAC [CACACA_site1890] | 6.6
CATTTTAAAGAAAATACACACAAAAATAGATATATA [CACACA_site6773] | 6.73
CAACATTTGATAAACACACAGAAGTATAAATATATA [CACACA_site2365] | 6.69
ATCGTTATATAAAAATGTACTTATAAATTGTATACA [XGTACX_site6664] | 6.58
AAAGGAAAAATCCAAGTGCATTATTATTTTCACAAA [GTGCAC_site9995] | 8.61
TGTAAGCACATACAAACACACAACATTATTTTTATC [CACACA_site2186] | 6.7
TAGTATAATATGAACACACACACACGCACAAAAAAA [CACACA_site7035] | 7.3
ACAGTATCTGGTAGCTGTACGAGTCGTAGAGAGTAG [XGTACX_site2041] | 6.85
ATTCAGTTATATAATACACACATATATTGACATTAT [CACACA_site2723] | 7.05
TATTATATTATGTGATGTACATATTTATATAGGCCC [XGTACX_site4746] | 6.67
TACGCTCCCAGACACACACACACACCGATATAATAT [CACACA_site8098] | 7.19
ATTTATTGACTATTTACACACATATTTATTAAAATA [CACACA_site4980] | 7.14
TATTACATACCTTATTGTACAAATTATATATTAAAG [XGTACX_site7334] | 6.71
TATTGTTAAAATGAATAATTAAAACAGTAATGAATA [XGTACX_negctrl_site170] | 6.31
TTAGCAACTATTACTACACACATTTTTATATAACTT [CACACA_site6762] | 6.89
AAGAAATAAAGCAAAACATGCACTCGAAAATGTTTT [TGCATGCA_site1014] | 7.12
CGCATGCAATGTTAATGTACATATATATATATATGT [XGTACX_site3316] | 6.66
TATATATGTTTTTATGTACACACTTTTAACCTAAGA [CACACA_site1149] | 6.76
ATGTCTAATTTTGATGCACACTTTTGTGCAATTAAA [CACACA_site5589] | 11

Sequence | gcPBM binding intensity (ln)
AGGTGCAAAAATAAAACATGCAAAAATAAAAATGAA [TGCATGCA_site502] | 10.7
AATAGTCGTGTGCATACACACCTTAACTATAATATA [CACACA_site6636] | 8.71
TAATAAAAAATATATACACACAAATAAATAAATAAA [CACACA_site4037] | 6.73
AATAATTAAATAAGAGTGCATGAAACAGGAAATTTC | 7.68
TATTTATCTATTTTGTTATATAATAAAATAAAATAA [CACACA_negctrl_site281] | 6.24
AAACAATTGAATAAATGTACAGATACATTTTTTTAA [XGTACX_site5386] | 6.09
AAAAATAAACAAAATTGTACACATTACATACATATA [XGTACX_site966] | 6.73
GAAAAAACGAAAAAAATACACACCTGAAAAGATATG [CACACA_site887] | 6.44
ATACATACAAAAATTTGTACATATTTCCAATAATGT [XGTACX_site2658] | 6.59
AAATTTCCATTTGGGTGTACATGTGAAACTACAAAG [XGTACX_site208] | 6.62
GCCATAATATGACATACACACACAAAAAAAAAAAAA [CACACA_site8353] | 6.37
TAATTTTTTTTTAATTGTACATGTGAATATATTTCA [XGTACX_site4115] | 6.34
GTTTACATTTTAAGAAGTACAAAATTTATGGTTAAA [XGTACX_site450] | 6.75
TATATATATATATGTAGTACTCAATATTGTAGATTA [XGTACX_site3856] | 9.13
AAATATATGTATATATGTACATATGTGTGCTATCAT [XGTACX_site1604] | 7.33
TTTATTCTTGAGTATTGTACATATGTGTTTGTATAT [XGTACX_site5706] | 6.79
AAAGGTGTCATATATGCACACAAAAGTAACACGCAC [CACACA_site8051] | 10.2
GAAAGAATAAAATTTACACACATATAAATATACATA [CACACA_site7125] | 6.15
TATTTGAAAACATAGGTGCACATTATTTTATAATCT [GTGCAC_site9947] | 10.1
AGGAGGATGCATATGGCACACATTATGAAACTGTCG [CACACA_site299] | 7.95
TTTTTTTTTGAATACAGTACACAAGTGTTAAGTTTA [XGTACX_site7069] | 6.01
TGTTCTTTGTTCAGCGCATGTAAAATAAAATAAAAT [TGCATGCA_site629] | 6.61
TATGAATATCTATACACACACATATATATACCCACT [CACACA_site4963] | 6.84

Sequence | gcPBM binding intensity (ln)
GATTGATTATATGTGTGTACTTATATGTTAAAAAAA [XGTACX_site4784] | 6.69
TTTTTATTTATATGATACTTATATATATATATATAT [CACACA_negctrl_site462] | 9.28
TCTTTTAAAAAAATTTGTACATATTTTTTGTATTAT [XGTACX_site67] | 6.64
TTCTTAATATTGCATGCACACTATATAATAATTGAA [CACACA_site4720] | 9.18
ACACTAACATCATATCGTACATTTGTTAATTTATAA [XGTACX_site8654] | 6.66
TATTTATTTTTTTTTGTGCACTTAATATAATCTTAC | 9.51
TTTTCCCTCTTATTCACACAAAAAAAATAAAATAAA [CACACA_site4656] | 6.5
ATATAATAATATTATACATGCAAAATATGTTCTTCA [TGCATGCA_site115] | 6.67
ATCGCATATACATTATATTTTATAATAATTATTTTT [GTGCAC_negctrl_site48] | 7.01
AGACTATCATTTTTTTAACACACAAAAAAAATAAAA [CACACA_site9173] | 6.35
TAACAAATATTATTTTGTACATAATATATATATATA [XGTACX_site6898] | 8.68
TATTTTTTTATTTATTGTACTTTAAAAAAAATTAAA [XGTACX_site6167] | 6.61
AATACACACCTGTGGGTGCTTATAATAAGCCACAAA | 6.61
ATATATTTATATTATACACACAAAAATATTTTGTAT [CACACA_site6262] | 6.61
TATATATATTAATTTATTTATTTGTTTATTTATTTA [CACACA_negctrl_site185] | 6.41
TTATAAAAATATTACGCACACACAAACTTATTCATT [CACACA_site1970] | 7.47
GGGAAACGATTTAATACACACACGTATTATATATAT [CACACA_site1160] | 7.22
ATATAAAATATGAGTAGTACATATTTTCTCATCTTA [XGTACX_site8595] | 6.05
CACAAAAGTAAGCACGCACACACAACATGAAATAAA [CACACA_site7938] | 6.79
CATTTTTTGTAAAATCGTACATATACATAAAGTGGT [XGTACX_site3423] | 6.43
AAAGACAAAAGGAATTGTACATAATATATAAAATAT [XGTACX_site2923] | 6.27
AATTTTATTTAAAGTGCATGTAAAATTAAAACTTTT [TGCATGCA_site989] | 6.82
TATGAATTTATCTACAACATTTGAAATAAATTAAAA [CACACA_negctrl_site79] | 6.04

Sequence | gcPBM binding intensity (ln)
TGTATACACATATGTACACACATATAGATGTATATG [CACACA_site7447] | 7.26
ATAATGTATATTATTGCACACATATATAAAATTATG [CACACA_site8280] | 10.5
TTTTATAAAAACAAAAACAAAGGCACTTTCTAAAGA [XGTACX_negctrl_site130] | 6.68
AATATAAATATAAATATAAATATATATATATATATA [TGCATGCA_negctrl_site603] | 9.17
TAAATAAATACATACACACACATACCTATATTTATA [CACACA_site7466] | 6.65
TTTTTTTAATAAATTTATAACAATATGATAGGTGAC [CACACA_negctrl_site1783] | 7.05
TGAATCAATTGTTGCTGTACATAAGGTATACAATAA [XGTACX_site5127] | 6.45
AGTTAAATGAATCAATACATAAATATGTATATATAT [TGCATGCA_negctrl_site539] | 6.49
TATTTGGGTATTTTTACACACATTAATATATATATA [CACACA_site9114] | 8.35
AAAGATAATAATATGCGTACATAAAAATATATGATA [XGTACX_site6884] | 6.35
ATAATGGAAAAAAAATATAATAATACGAAATAGGAA [TGCATGCA_negctrl_site64] | 6.83
AAGAATTATAGAAACACACATACATACAGACATACA [CACACA_site1943] | 6.7
TAATTACCATATGGTACACACATATATATCTGTATA [CACACA_site5849] | 6.72
AAGAAGAGTTATTGTAGTACATTTTTAAATGTAATA [XGTACX_site7664] | 6.22
AATAATATCTGAAAATGTACATTTTATTATAAACAT [XGTACX_site8441] | 6.65
TCATTATTATATAATTGTACATAATAATTATATCCA [XGTACX_site1801] | 6.24
AATATAATATATATTAGTACATATATATATATATAT [XGTACX_site870] | 9.29
CCTCATATTATAGACACACACAAAAAAAATAAAAAA [CACACA_site180] | 6.59
ATGTATGTGTATATATGTACATAATATATATCTTTT [XGTACX_site8666] | 6.6
ATGCAAACTAAAAGACGTACAGAAAAGTATCATACT [XGTACX_site8766] | 6.23
